Reference: patent KR20220059888A (dated 2022)

T1: 개 Tie2 단백질 (개 (dog), UniProt A0A8I3S0B4 27-1128)
T1 construct: whole, on cells; also called 다른 종 유래의 Tie2 단백질
T1 sequence: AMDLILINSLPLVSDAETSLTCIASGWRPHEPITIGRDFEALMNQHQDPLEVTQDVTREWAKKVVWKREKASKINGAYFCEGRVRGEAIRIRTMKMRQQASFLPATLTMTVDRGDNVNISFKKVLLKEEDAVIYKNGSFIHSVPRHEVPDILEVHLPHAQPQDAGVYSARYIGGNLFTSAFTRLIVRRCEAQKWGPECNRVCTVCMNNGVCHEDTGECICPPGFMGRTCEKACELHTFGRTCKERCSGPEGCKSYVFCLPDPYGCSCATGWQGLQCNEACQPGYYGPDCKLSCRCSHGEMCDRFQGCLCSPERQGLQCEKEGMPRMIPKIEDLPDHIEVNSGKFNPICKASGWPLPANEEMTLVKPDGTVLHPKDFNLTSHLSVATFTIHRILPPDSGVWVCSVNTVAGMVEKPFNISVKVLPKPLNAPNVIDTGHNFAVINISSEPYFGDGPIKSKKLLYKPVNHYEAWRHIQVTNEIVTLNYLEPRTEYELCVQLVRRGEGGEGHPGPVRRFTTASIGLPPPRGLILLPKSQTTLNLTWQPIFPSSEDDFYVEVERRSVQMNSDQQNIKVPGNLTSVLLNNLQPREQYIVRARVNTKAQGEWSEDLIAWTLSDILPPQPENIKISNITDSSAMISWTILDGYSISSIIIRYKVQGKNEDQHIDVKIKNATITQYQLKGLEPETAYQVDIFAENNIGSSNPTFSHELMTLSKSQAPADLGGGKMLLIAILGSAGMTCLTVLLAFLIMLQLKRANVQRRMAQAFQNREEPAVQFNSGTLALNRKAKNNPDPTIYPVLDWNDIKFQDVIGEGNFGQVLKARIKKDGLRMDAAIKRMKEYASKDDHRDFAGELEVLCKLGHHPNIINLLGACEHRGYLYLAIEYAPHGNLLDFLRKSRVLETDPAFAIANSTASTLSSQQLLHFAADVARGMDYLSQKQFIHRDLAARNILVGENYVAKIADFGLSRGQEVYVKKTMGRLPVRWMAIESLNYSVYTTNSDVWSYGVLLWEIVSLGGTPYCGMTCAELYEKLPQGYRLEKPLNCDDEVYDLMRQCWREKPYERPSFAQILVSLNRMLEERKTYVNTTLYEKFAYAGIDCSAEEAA

T2: 랫 Tie2 단백질 (랫 (rat), UniProt A0ABK0L6J5 19-1116)
T2 construct: whole, on cells; also called 다른 종 유래의 Tie2 단백질
T2 sequence: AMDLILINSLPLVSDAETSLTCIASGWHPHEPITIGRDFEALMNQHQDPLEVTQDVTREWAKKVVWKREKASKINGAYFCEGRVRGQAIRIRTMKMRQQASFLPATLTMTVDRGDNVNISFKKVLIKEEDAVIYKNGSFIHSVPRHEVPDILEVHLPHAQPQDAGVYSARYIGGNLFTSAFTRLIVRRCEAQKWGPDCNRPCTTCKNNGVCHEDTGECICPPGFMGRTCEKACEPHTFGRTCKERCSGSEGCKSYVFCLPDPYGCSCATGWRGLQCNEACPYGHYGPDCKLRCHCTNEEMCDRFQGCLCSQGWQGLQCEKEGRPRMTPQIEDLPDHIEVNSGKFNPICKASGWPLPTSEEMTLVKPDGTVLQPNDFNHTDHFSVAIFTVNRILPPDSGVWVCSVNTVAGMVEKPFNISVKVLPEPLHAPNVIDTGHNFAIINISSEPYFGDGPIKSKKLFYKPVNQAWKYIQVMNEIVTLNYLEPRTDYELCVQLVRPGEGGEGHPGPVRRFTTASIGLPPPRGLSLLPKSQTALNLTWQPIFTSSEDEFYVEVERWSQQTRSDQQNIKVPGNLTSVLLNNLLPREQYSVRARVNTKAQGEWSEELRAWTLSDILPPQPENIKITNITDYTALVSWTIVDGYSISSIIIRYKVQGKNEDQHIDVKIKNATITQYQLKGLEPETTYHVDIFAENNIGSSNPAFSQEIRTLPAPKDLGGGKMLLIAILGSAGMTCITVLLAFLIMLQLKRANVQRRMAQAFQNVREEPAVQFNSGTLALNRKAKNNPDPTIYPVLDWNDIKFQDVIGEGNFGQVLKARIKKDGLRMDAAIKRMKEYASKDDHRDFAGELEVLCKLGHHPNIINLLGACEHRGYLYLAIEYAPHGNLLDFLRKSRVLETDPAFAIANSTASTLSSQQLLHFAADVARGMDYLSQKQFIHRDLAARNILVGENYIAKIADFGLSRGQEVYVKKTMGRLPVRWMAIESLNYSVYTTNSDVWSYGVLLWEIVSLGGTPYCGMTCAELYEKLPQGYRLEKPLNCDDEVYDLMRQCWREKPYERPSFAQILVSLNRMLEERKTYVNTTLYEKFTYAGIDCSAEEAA

T3: 마우스 Tie2 단백질 (마우스 (mouse), UniProt Q02858 23-1122)
T3 construct: whole, on cells; also called 다른 종 유래의 Tie2 단백질
T3 sequence (looked up): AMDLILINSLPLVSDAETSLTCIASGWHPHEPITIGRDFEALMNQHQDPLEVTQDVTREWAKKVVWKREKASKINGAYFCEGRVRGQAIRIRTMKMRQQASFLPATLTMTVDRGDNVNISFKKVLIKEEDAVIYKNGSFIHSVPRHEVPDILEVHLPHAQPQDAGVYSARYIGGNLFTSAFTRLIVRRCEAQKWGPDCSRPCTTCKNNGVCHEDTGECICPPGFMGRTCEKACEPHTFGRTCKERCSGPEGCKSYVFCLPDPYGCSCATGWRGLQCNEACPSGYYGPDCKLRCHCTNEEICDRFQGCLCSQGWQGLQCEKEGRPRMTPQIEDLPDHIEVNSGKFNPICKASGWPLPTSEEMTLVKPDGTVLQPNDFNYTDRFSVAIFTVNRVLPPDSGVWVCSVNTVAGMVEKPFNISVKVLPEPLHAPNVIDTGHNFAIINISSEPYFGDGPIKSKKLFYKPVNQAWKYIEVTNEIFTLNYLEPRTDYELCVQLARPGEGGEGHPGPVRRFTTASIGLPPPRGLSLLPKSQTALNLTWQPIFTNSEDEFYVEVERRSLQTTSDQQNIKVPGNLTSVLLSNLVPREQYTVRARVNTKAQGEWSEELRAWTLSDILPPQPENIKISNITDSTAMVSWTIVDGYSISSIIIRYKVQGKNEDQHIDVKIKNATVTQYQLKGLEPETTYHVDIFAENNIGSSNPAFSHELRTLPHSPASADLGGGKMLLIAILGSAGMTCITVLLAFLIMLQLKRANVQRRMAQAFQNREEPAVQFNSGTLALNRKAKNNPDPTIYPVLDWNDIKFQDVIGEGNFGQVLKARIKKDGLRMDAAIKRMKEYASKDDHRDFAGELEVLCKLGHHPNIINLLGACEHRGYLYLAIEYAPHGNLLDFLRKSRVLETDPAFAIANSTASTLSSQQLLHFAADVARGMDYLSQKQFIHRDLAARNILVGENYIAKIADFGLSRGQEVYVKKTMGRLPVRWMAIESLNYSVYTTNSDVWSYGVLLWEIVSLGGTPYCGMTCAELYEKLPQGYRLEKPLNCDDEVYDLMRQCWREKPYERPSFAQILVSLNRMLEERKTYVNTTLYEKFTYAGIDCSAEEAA


Assays:
개 Tie2 단백질 = target: T1, 개 Tie2 단백질; test: flow cytometry; HEK293T cells transfected with dog Tie2
인간 Tie2-Fc 재조합 단백질 = target: T4, 인간 Tie2-Fc 재조합 단백질 (인간 (human), UniProt Q02763 23-748, limits assumed); test: BLI (Octet K2); human Tie2-Fc immobilised on AR2G tip; antibody 30-1.63 nM; global fit
T4 construct: Human Tie2-Fc recombinant protein, coated in ELISA and immobilised in BLI; also called 인간 Tie2-Fc 단백질; 항원; not shown: Fc part

랫 Tie2 단백질 = target: T2, 랫 Tie2 단백질; test: flow cytometry; HEK293T cells transfected with rat Tie2
마우스 Tie2 단백질 = target: T3, 마우스 Tie2 단백질; test: flow cytometry; HEK293T cells transfected with mouse Tie2

Kd (인간 Tie2-Fc 재조합 단백질) [nM] | koff (인간 Tie2-Fc 재조합 단백질) [s⁻¹] | kon (인간 Tie2-Fc 재조합 단백질) [M⁻¹ s⁻¹] | Binder | binding result (개 Tie2 단백질) | binding result (랫 Tie2 단백질) | binding result (마우스 Tie2 단백질)
0.474 | 4.8e-05 | 101000 | Ang1mab4(L1Y05F) (antibody, human IgG4 S228P, kappa, also called 변이 항체) heavy: QVQLVQSGGGVVQPGRSLRLSCAASGLTFSNYAMHWVRQAPGKGLEWVAVISYDGENKYYADSVKGRFTISRDNSKNMLQLQMNRLRSEDTAVYYCATPKGGALEIWGQGTVITVSSASTKGPSVFPLAPCSRSTSESTAALGCLVKDYFPEPVTVSWNSGALTSGVHTFPAVLQSSGLYSLSSVVTVPSSSLGTKTYTCNVDHKPSNTKVDKRV[sequence of human IgG4 Fc with S228P (EU numbers) omitted] light: DIQMTQSPDSLAVSLGERATINCKSSQSVLFSSNNKNYLAWYQQKPGQPPNLLMYWASTRESGVPDRFSGSGSGTDFTLTISSLQAEDVAVYYCQQYYSAPITFGQGTRLEIKRTVAAPSVFIFPPSDEQLKSGTASVVCLLNNFYPREAKVQWKVDNALQSGNSQESVTEQDSKDSTYSLSSTLTLSKADYEKHKVYACEVTHQGLSSPVTKSFNRGEC | no binding (tested: 5-g/ml (so in the source)) | no binding (tested: 5-g/ml (so in the source)) | no binding (tested: 5-g/ml (so in the source))
0.476 | 4.62e-05 |  | Ang1mab1 (antibody, human IgG1, kappa, Its matched control is called IgG1 control; also called 제1 기본 항체; 기본 항체(Ang1mab1)) heavy: QVQLVQSGGGVVQPGRSLRLSCAASGLTFSNYAMHWVRQAPGKGLEWVAVISYDGENKYYADSVKGRFTISRDNSKNMLQLQMNRLRSEDTAVYYCATPKGGALEIWGQGTVITVSS[sequence of human IgG1 constant region omitted] light: DIQMTQSPDSLAVSLGERATINCKSSQSVLYSSNNKNYLAWYQQKPGQPPNLLMYWASTRESGVPDRFSGSGSGTDFTLTISSLQAEDVAVYYCQQYYSAPITFGQGTRLEIKRTVAAPSVFIFPPSDEQLKSGTASVVCLLNNFYPREAKVQWKVDNALQSGNSQESVTEQDSKDSTYSLSSTLTLSKADYEKHKVYACEVTHQGLSSPVTKSFNRGEC | no binding (tested: 5-g/ml (so in the source)) | no binding (tested: 5-g/ml (so in the source)) | no binding (tested: 5-g/ml (so in the source))
